# According to the supplement of paper PMC8728848:
# The other results are listed elsewhere or left out.
# How the values were obtained:
# Experiment in all cases: glycan array binding signal (z-score within array); higher = stronger binding
# Conditions in all cases: glycan notation: IUPAC condensed, linker removed
# [1] = target: Fuc(a1-2)[GalNAc(a1-3)]Gal(b1-4)GlcNAc(b1-3)Gal(b1-4)GlcNAc
# Summary of the method: (§1)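 Negative Z-scores can be read as non-binding. The Z-score is calculated within each array and then averaged across arrays of one protein sequence at different concentrations or buffers and across linkers. Arrays, 3228 in all, were curated from the Consortium for Functional Glycomics database and kept only where the protein sequence was available.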
# [2] = target: Fuc(a1-2)[GalNAc(a1-3)]Gal(b1-4)GlcNAc(b1-3)Gal(b1-4)GlcNAc(b1-3)Gal(b1-4)GlcNAc
# Summary of the method: as §1
# [3] = target: Fuc(a1-2)[GalNAc(a1-3)]Gal(b1-4)GlcNAc(b1-3)GalNAc
# Summary of the method: as §1
# [4] = target: Fuc(a1-2)[GalNAc(a1-3)]Gal(b1-4)[Fuc(a1-3)]GlcNAc
# Summary of the method: as §1
# [5] = target: Fuc(a1-2)[GalNAc(a1-3)]Gal(b1-4)[Fuc(a1-3)]GlcNAc(b1-3)GalNAc
# Summary of the method: as §1
# [6] = target: Fuc(a1-2)[GalNAc(a1-4)]Gal(b1-4)GlcNAc
# Summary of the method: as §1
# [7] = target: Fuc(a1-2)[GalNAc(b1-3)]Gal
# Summary of the method: as §1
# [8] = target: Fuc(a1-3)GlcNAc
# Summary of the method: as §1
# [9] = target: Fuc(a1-3)[Gal(b1-4)]Glc6S
# Summary of the method: as §1
# [10] = target: Fuc(a1-3)[Gal(b1-4)]GlcNAc
# Summary of the method: as §1
# [11] = target: Fuc(a1-3)[Gal(b1-4)]GlcNAc(b1-2)Man
# Summary of the method: as §1
# [12] = target: Fuc(a1-3)[Gal(b1-4)]GlcNAc(b1-2)Man(a1-3)[Fuc(a1-3)[Gal(b1-4)]GlcNAc(b1-2)Man(a1-6)]Man(b1-4)GlcNAc(b1-4)GlcNAc
# Summary of the method: as §1
# [13] = target: Fuc(a1-3)[Gal(b1-4)]GlcNAc(b1-2)Man(a1-3)[Fuc(a1-3)[Gal(b1-4)]GlcNAc(b1-2)Man(a1-6)]Man(b1-4)GlcNAc(b1-4)[Fuc(a1-6)]GlcNAc
# Summary of the method: as §1
# [14] = target: Fuc(a1-3)[Gal(b1-4)]GlcNAc(b1-3)Gal(b1-3)[Fuc(a1-4)]GlcNAc
# Summary of the method: as §1
# [15] = target: Fuc(a1-3)[Gal(b1-4)]GlcNAc(b1-3)GalNAc
# Summary of the method: as §1
# [16] = target: Fuc(a1-3)[Gal(b1-4)]GlcNAc(b1-4)Gal(b1-4)[Fuc(a1-3)]GlcNAc
# Summary of the method: as §1
# [17] = target: Fuc(a1-3)[Gal(b1-4)]GlcNAc(b1-4)Gal(b1-4)[Fuc(a1-3)]GlcNAc(b1-4)Gal(b1-4)[Fuc(a1-3)]GlcNAc
# Summary of the method: as §1
# [18] = target: Fuc(a1-3)[Gal(b1-4)]GlcNAc(b1-6)GalNAc
# Summary of the method: as §1
# [19] = target: Fuc(a1-3)[Gal(b1-4)]GlcNAc(b1-6)[Gal(b1-3)GlcNAc(b1-3)]Gal(b1-4)Glc
# Summary of the method: as §1
# [20] = target: Fuc(a1-3)[Gal(b1-4)]GlcNAc(b1-6)[Neu5Ac(a2-3)Gal(b1-3)]GalNAc
# Summary of the method: as §1
# [21] = target: Fuc(a1-3)[Gal(b1-4)]GlcNAc6S
# Summary of the method: as §1
# [22] = target: Fuc(a1-3)[Gal3S(b1-4)]GlcNAc
# Summary of the method: as §1
# [23] = target: Fuc(a1-3)[Gal3S(b1-4)]GlcNAc6S
# Summary of the method: as §1
# [24] = target: Fuc(a1-3)[GalNAc(b1-4)]GlcNAc
# Summary of the method: as §1
# [25] = target: Fuc(a1-3)[GalNAc(b1-4)]GlcNAc6S
# Summary of the method: as §1
# [26] = target: Fuc(a1-3)[GalNAc3S(b1-4)]GlcNAc
# Summary of the method: as §1
# [27] = target: Fuc(a1-4)GlcNAc
# Summary of the method: as §1
# [28] = target: Fuc(b1-3)GlcNAc
# Summary of the method: as §1
# [29] = target: Gal(a1-2)Gal
# Summary of the method: as §1
# [30] = target: Gal(a1-3)Gal
# Summary of the method: as §1
# [31] = target: Gal(a1-3)Gal(b1-3)GlcNAc
# Summary of the method: as §1
# [32] = target: Gal(a1-3)Gal(b1-3)GlcNAc(b1-2)Man(a1-3)[Gal(a1-3)Gal(b1-3)GlcNAc(b1-2)Man(a1-6)]Man(b1-4)GlcNAc(b1-4)GlcNAc
# Summary of the method: as §1
# [33] = target: Gal(a1-3)Gal(b1-3)GlcNAc(b1-3)GalNAc
# Summary of the method: as §1
# [34] = target: Gal(a1-3)Gal(b1-3)GlcNAc(b1-6)GalNAc
# Summary of the method: as §1
# [35] = target: Gal(a1-3)Gal(b1-3)[Fuc(a1-4)]GlcNAc(b1-2)Man(a1-3)[Gal(a1-3)Gal(b1-3)[Fuc(a1-4)]GlcNAc(b1-2)Man(a1-6)]Man(b1-4)GlcNAc(b1-4)GlcNAc
# Summary of the method: as §1
# [36] = target: Gal(a1-3)Gal(b1-4)Glc
# Summary of the method: as §1
# [37] = target: Gal(a1-3)Gal(b1-4)GlcNAc
# Summary of the method: as §1
# [38] = target: Gal(a1-3)Gal(b1-4)GlcNAc(b1-3)GalNAc
# Summary of the method: as §1
# [39] = target: Gal(a1-3)Gal(b1-4)GlcNAc(b1-6)GalNAc
# Summary of the method: as §1
# [40] = target: Gal(a1-3)Gal(b1-4)[Fuc(a1-3)]GlcNAc
# Summary of the method: as §1
# [41] = target: Gal(a1-3)Gal(b1-4)[Fuc(a1-3)]GlcNAc(b1-2)Man(a1-3)[Gal(a1-3)Gal(b1-4)[Fuc(a1-3)]GlcNAc(b1-2)Man(a1-6)]Man(b1-4)GlcNAc(b1-4)GlcNAc
# Summary of the method: as §1
# [42] = target: Gal(a1-3)GalNAc
# Summary of the method: as §1
# [43] = target: Gal(a1-3)[Gal(a1-4)]Gal(b1-4)GlcNAc
# Summary of the method: as §1
# [44] = target: Gal(a1-4)Gal(b1-3)GlcNAc(b1-2)Man(a1-3)[Gal(a1-4)Gal(b1-3)GlcNAc(b1-2)Man(a1-6)]Man(b1-4)GlcNAc(b1-4)GlcNAc
# Summary of the method: as §1
# [45] = target: Gal(a1-4)Gal(b1-4)Glc
# Summary of the method: as §1
binder,measurement,setting,value
CCL1 (Coprinopsis cinerea) (protein) MDTQAKPPAGRYVIYNRVLSPNGEKLALTYPGYQREALTLTPLHHSANQIWILNNWDATTSSLTPETARNTQVGWGSGNVPIVLPPGNYVWTLASSAGGYIIQDGGKTVYWNAGEAVANTKVSIGGDNGLQARWIFERV,glycan array binding signal (z-score),[1],-0.161
same,glycan array binding signal (z-score),[2],-0.073
same,glycan array binding signal (z-score),[3],-0.106
same,glycan array binding signal (z-score),[4],-0.128
same,glycan array binding signal (z-score),[5],0.174
same,glycan array binding signal (z-score),[6],-0.144
same,glycan array binding signal (z-score),[7],-0.128
same,glycan array binding signal (z-score),[8],-0.156
same,glycan array binding signal (z-score),[9],-0.158
same,glycan array binding signal (z-score),[10],0.754
same,glycan array binding signal (z-score),[11],0.141
same,glycan array binding signal (z-score),[12],0.237
same,glycan array binding signal (z-score),[13],-0.134
same,glycan array binding signal (z-score),[14],1.7
same,glycan array binding signal (z-score),[15],-0.158
same,glycan array binding signal (z-score),[16],1.02
same,glycan array binding signal (z-score),[17],1.68
same,glycan array binding signal (z-score),[18],0.078
same,glycan array binding signal (z-score),[19],0.53
same,glycan array binding signal (z-score),[20],0.424
same,glycan array binding signal (z-score),[21],0.449
same,glycan array binding signal (z-score),[22],-0.072
same,glycan array binding signal (z-score),[23],-0.071
same,glycan array binding signal (z-score),[24],8.48
same,glycan array binding signal (z-score),[25],13.6
same,glycan array binding signal (z-score),[26],7.46
same,glycan array binding signal (z-score),[27],-0.148
same,glycan array binding signal (z-score),[28],-0.146
same,glycan array binding signal (z-score),[29],-0.144
same,glycan array binding signal (z-score),[30],-0.174
same,glycan array binding signal (z-score),[31],-0.144
same,glycan array binding signal (z-score),[32],-0.12
same,glycan array binding signal (z-score),[33],-0.163
same,glycan array binding signal (z-score),[34],-0.131
same,glycan array binding signal (z-score),[35],-0.081
same,glycan array binding signal (z-score),[36],-0.151
same,glycan array binding signal (z-score),[37],-0.163
same,glycan array binding signal (z-score),[38],-0.149
same,glycan array binding signal (z-score),[39],-0.164
same,glycan array binding signal (z-score),[40],1.11
same,glycan array binding signal (z-score),[41],0.527
same,glycan array binding signal (z-score),[42],-0.151
same,glycan array binding signal (z-score),[43],-0.143
same,glycan array binding signal (z-score),[44],-0.153
same,glycan array binding signal (z-score),[45],-0.154
